For 56 variants, self-cleavage results are on record in the RNAGym collection of RNA variant scans (doi:10.7554/elife.90254).

B1: LINE1-mini (parent)
chain: GGCAGAGCUCAACACAGCGUGGCAAAGUGGCUGUGGCUAGACUGCC

The source gives no read counts; variants with many changes may rest on few reads.

The series covers variants of B1. As to the kind of experiment: self-cleavage, relative activity (ratio to wild type); higher = more cleavage; in vitro, sequencing; the parent is a self-cleaving ribozyme.
Consider GGUAGAGCUCAACACAGCGUGGCAAAGUGGCUGUGGCUUGACUCCC [C3U A39U G44C], for which the self-cleavage was determined as 0.09.

Take GGUAGAGCUCAACCCAGCGUGGCAAAGUGGCUGUGGCUAGGCUGCC [C3U A14C A41G]: the self-cleavage came to 0.02.

Consider GGUAGAGCUCAUCACAGCGUGGAAAAGUGGCCGUGGCUAGACAGCC [C3U A12U C23A U32C U43A], for which the self-cleavage came to 0.02.

For GGUAGAGUUCAACACAGUGUGGCAAAGUGGCUGUGAUUAGCCUGCC [C3U C8U C18U G36A C37U A41C], the self-cleavage came to 0.12.

As for GGUAGAGCUCAACACAGCGUGGCAAUGUGGCUGUGGCUAGCCUGCC [C3U A26U A41C], the self-cleavage came out at 0.05.

On to GGUAGAGCUAAACACAGCGUGGGAAAGUGGCUGUGGCUAGACUGAC [C3U C10A C23G C45A], for which the self-cleavage stood at 0.03.

Regarding GGUAGAGCUCCACACAGCGUGGCGAAGUGGCUAUGGCUAGACAGUC [C3U A11C A24G G33A U43A C45U], the self-cleavage is 0.02.

In the case of GGUAGGGACCAACACAGCGUGGCAAAUUGGCUGUGGCUUGACUGCC [C3U A6G C8A U9C G27U A39U], the self-cleavage was 0.07.

With GGUAGAGCUCAACACAGCGUGGCGAAGUGGCUGUGCCUAAACUGAC [C3U A24G G36C G40A C45A], the self-cleavage turned out to be 0.02.

Consider GGUAGAGCUCAACACAGCGUGGCAAAGUGGCUGUGGCUAGUCUGUC [C3U A41U C45U], for which the self-cleavage worked out at 0.18.

As for GGUAGAGCUGAACACAGCGUGGAAAAGUGGCUGUGGCUAGACUGCC [C3U C10G C23A], the self-cleavage stood at 0.04.

GGUAGAGCUCAACACGGCUUGGCAAAGUGGCUGUGGCUAGACUGCC [C3U A16G G19U]: the self-cleavage was 0.1.

Turning to GGUAGAGCUGACCACAGCGGGGGAAAGUGGCUGUGGCAAGAAUGCC [C3U C10G A12C U20G C23G U38A C42A], the self-cleavage was determined as 0.

On to GGUAGAGCUCAACCCGGCGUGGCAAAGUGGCUGGGGUUAGACUGCC [C3U A14C A16G U34G C37U], for which the self-cleavage was determined as 0.01.

GGUAGAGCUCAAAACAGCGGGGAAAAGUGGCUCUGGUUAGACUGCC [C3U C13A U20G C23A G33C C37U]: the self-cleavage was 0.01.

Regarding GGUAGAGAUCAACACAGGGUGGCAAAGUGGCUGUGGCUAGACUGCC [C3U C8A C18G], the self-cleavage amounted to 0.15.

On to GGUAGCGCGCAAGACAGCAUGGCAAAGUGGCUGUGGCUACCCUGCC [C3U A6C U9G C13G G19A G40C A41C], for which the self-cleavage was found to be 0.05.

As to GGUAGCGCUCAACACAUCGUGGCAAAGUGGCUGUGGCUAGGCUGAC [C3U A6C G17U A41G C45A], the self-cleavage was 0.14.

Turning to GGUAGAGCUCCCCACAGCGUGGCAAAGUGGCUGUGGCUAGACUGCC [C3U A11C A12C], the self-cleavage turned out to be 0.01.

As to GGUAGAGCUUAACACAGCGUGGCAAAGUGGCUGUGACUAGACUGGA [C3U C10U G36A C45G C46A], the self-cleavage is 0.12.

As for GGUAGAGCUCAAAACAGCGUGGCAAAGUGGAUGUUGCUAGACUGCC [C3U C13A C31A G35U], the self-cleavage is 0.14.

As for GGUAGGGGUCAACACAGGGUGGCAAAUUGGCUUAGGCUAGACUGCC [C3U A6G C8G C18G G27U G33U U34A], the self-cleavage came to 0.05.

On to GGUAGGGCUCAACACUGCGUGGGAAAGUGGCUGUAGCUAGACUGCC [C3U A6G A16U C23G G35A], for which the self-cleavage worked out at 0.01.

Turning to GGUAGAGCUCAACCCAGCGUGGCAAAGUGGCUGUGGCUUAACUGCC [C3U A14C A39U G40A], the self-cleavage is 0.94.

GGUAGCGCUCCACAAAGCGUGGCAAAAUGGCUGUGGCUCGACUGCC [C3U A6C A11C C15A G27A A39C]: the self-cleavage worked out at 0.02.

For GGUAGAGCUCAACGCAGCGUGGCAAAGUGGCAGUGGCUAGACUGCC [C3U A14G U32A], the self-cleavage was 0.13.

As for GGUAGAGUUCAACACAGCGUGGCAAAGUGGCUGUGGCUAGACUGGU [C3U C8U C45G C46U], the self-cleavage was 0.74.

Consider GGUAGAGCUAAACACAGCGUGGCAAAGUGGAUGUGGCUAGACUGCC [C3U C10A C31A], for which the self-cleavage amounted to 0.07.

Take GGUAGAGAUCAACAAAGCGUGGCAAAGUGGCUGUGGCUAGACUGCC [C3U C8A C15A]: the self-cleavage turned out to be 0.64.

As to GGUAGAGUUCAACACAGUGUGGCACAUUGGCUGUGGCUAGACUGCC [C3U C8U C18U A25C G27U], the self-cleavage was found to be 0.33.

As for GGUAGAGAUCAACACACCGUGGCAAAGUUGCUGUGGCUUGACUGCC [C3U C8A G17C G29U A39U], the self-cleavage was 0.25.

As to GGUAGAGCUCAUCACAGCGUGGCAAAGUGGCUGUGGCCAGACUGCC [C3U A12U U38C], the self-cleavage stood at 0.17.

Turning to GGUAGUGCUCAACACAGCGUGGCAAAGUGGCUGUGGCUAAACUGCC [C3U A6U G40A], the self-cleavage came to 0.21.

With GGUUGAGCUCAACACAACGUGGCAAUGUGGCUGUGGCUUGACUUCC [C3U A4U G17A A26U A39U G44U], the self-cleavage was found to be 0.01.

Turning to GGUAGAGCUAAACACAGCGUGGCAAUGUGGCUGUGGCUAGACUGCC [C3U C10A A26U], the self-cleavage was determined as 0.01.

On to GGUAGUCAUCAGCACGGCGUGGCAAAGUGGCUGUGGCUAGACUGCC [C3U A6U G7C C8A A12G A16G], for which the self-cleavage worked out at 0.24.

As to GGUAGAGCUCAACGCAGCGUGGGCAAGUGGCUGUGGCUAGACUGCC [C3U A14G C23G A24C], the self-cleavage amounted to 0.16.

In the case of GGUAGAGCUCAAAACAGCGUGGCAAAGUGGCUGUGGCUAGACUGUC [C3U C13A C45U], the self-cleavage stood at 0.05.

As for GGUAGAGCUCAAAACAGCGUGGCAAAGUGGCUGUGGCUAGACUGGC [C3U C13A C45G], the self-cleavage was found to be 0.1.

As for GGUAGAGCUCCACACAGCGUGUCAAAGUGGCUGUGGCUUAACUGCC [C3U A11C G22U A39U G40A], the self-cleavage is 0.

Regarding GGUAGAGCUCAACACAGCGUGGCUACGUGGCUGUGGCUAGACCGCC [C3U A24U A26C U43C], the self-cleavage was found to be 0.03.

Take GGUAGAGCUUAACACAGCGGGGCAAAGUGGCAGUGGCUAGACAGCC [C3U C10U U20G U32A U43A]: the self-cleavage stood at 0.04.

For the variant GGUAGAGCUAAACACAGCGUGGCAACGUGGCUGUGGCUAGGCUACC [C3U C10A A26C A41G G44A], the self-cleavage is 0.01.

Consider GGUAGAGCUCUACACAGCGUGGCAAAGUGGCUGUGGCUAGACUGCG [C3U A11U C46G], for which the self-cleavage amounted to 0.01.

On to GGUAGAGCUCAACUAAGCAUGGCAAAGUGGCUGUGGCUAGACUGCC [C3U A14U C15A G19A], for which the self-cleavage came to 0.11.

As to GGUAGAGAUCAACACAGCGUGGCAGACUGCCUGUGGCUAGACUGCC [C3U C8A A25G G27C G30C], the self-cleavage is 0.11.

Consider GGUAGAGCUAAACACAACUUGGCAAAGUGGCUGUGGCUAGACUGCC [C3U C10A G17A G19U], for which the self-cleavage came out at 0.03.

Turning to GGUAGAGCUCAACACGGCGUGGAAAAGUGGCUGUGGCUAGACUGCC [C3U A16G C23A], the self-cleavage amounted to 0.66.

As to GGUAGAGCUCGACAGAGCGUGGCAAAGUGGCUGUGGCUAGACUGCC [C3U A11G C15G], the self-cleavage amounted to 0.02.

On to GGUAGCGCUAAACACAGCGUGGCAAAGUGGCUGUGGCUAGACUGCC [C3U A6C C10A], for which the self-cleavage was found to be 0.02.

Regarding GGUAGAGCUCAACACAGCGUGGCCAAGUGGCUGUGGAUAGACGGCC [C3U A24C C37A U43G], the self-cleavage worked out at 0.

Turning to GGUAGAGGUCACCACAGCGUGGCAAAGUGGCUGUGGCUAGACUGCC [C3U C8G A12C], the self-cleavage turned out to be 0.04.

As to GGUAGGGCGCAACACAGCGUGGGAAAGUGGCUGUGGCUAGACUGCC [C3U A6G U9G C23G], the self-cleavage turned out to be 0.13.

Take GGUAGAGCUCAACACAGCGUGGCAGAGUGGCUGUGGCUAGAAUGGC [C3U A25G C42A C45G]: the self-cleavage was 0.16.

For GGUAGAGCUCCACACAGCGUGGCAUAGUGGCUGUGGCUAGCCUGCC [C3U A11C A25U A41C], the self-cleavage came out at 0.03.

GGUAGAGGUCAACACAGCGUGGCAAUGUGGCUGUGGCUAGACUGCC [C3U C8G A26U]: the self-cleavage was determined as 0.02.
